The whole screen tested about 350,000 compounds, of which about 260 (0.074%) were called active. The inconclusive results got no clear call from the source; some entries with a clear call stand among them for comparison. Calls follow the shape of the dose curve; as a rule, active = well fitted inhibition curve with a large enough effect; inconclusive = small, poorly fitted or top-dose-only effect; inactive = no such curve, though single readings can be large or run the other way. A potency beside an inconclusive call is a rough fit, not a confirmed value.
molecular target: Ferritin light chain (Equus caballus) (UniProt P02791); test: qHTS Assay for Identification of Novel General Anesthetics; conditions: apoferritin/1-aminoanthracene competitive binding, fluorescence; activity change, negative = displacement: at 77.5 µM (top of the series); also: nearly all actives have a fitted effect of over 20% in size
UniProt P02791, sequence (P02791 whole entry, looked up): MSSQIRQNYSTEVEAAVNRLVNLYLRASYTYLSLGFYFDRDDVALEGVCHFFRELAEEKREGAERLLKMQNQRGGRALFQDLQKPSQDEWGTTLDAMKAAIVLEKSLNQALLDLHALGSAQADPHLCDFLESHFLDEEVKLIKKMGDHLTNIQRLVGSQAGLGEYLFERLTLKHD
Method in brief: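 Steps: apoferritin (10 uM) was premixed with half-saturated 1-AMA in PBS, compounds were pin-transferred, plates stood 10 min at room temperature, fluorescence was read at 380/535 nm, and curves were fitted with a Hill equation.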
% is scaled to controls: 0 for no effect and ±100 for the full control effect; tags tell the direction and shape of the fitted curve.

SMILES | Potency | activity change, negative = displacement
COc1cccc(CNC(=O)C2CC(=O)N(C3CCCCCCC3)C2)c1 (stereo not given) | inconclusive: 39.8 µM [inhibitor, single point] | –
COc1cccc(-n2nc(C(N)=O)c(O)cc2=O)c1 | – | inactive: 0.363%
O=C(CCC(=O)OCC(=O)c1ccc(-c2ccccc2)cc1)Nc1cccc2cccnc12 | inconclusive: 4.47 µM [inhibitor, partial curve] | –
CC1=NOC(=O)/C1=C\c1ccc(-c2ccc(Cl)cc2Cl)o1 | inconclusive: 11.2 µM [inhibitor, full curve, poor fit] | –
Cc1ccc(C)c(N2CCN(C(=O)C3CCN(S(=O)(=O)c4ccc5[nH]c(=O)oc5c4)CC3)CC2)c1 | inconclusive: 14.1 µM [inhibitor, partial curve] | –
CCn1c(SCC(=O)NC2CCCCC2C)nnc1-c1ccc(OC)cc1 (stereo not given) | inconclusive: 35.5 µM [inhibitor, single point] | –
CCCC1CCC(c2ccc(C(N)=O)cc2)CC1 (stereo not given) | – | inactive: -7.53%
C=CCc1ccc(OCC(O)COc2ccc(CC=C)cc2OC)c(OC)c1 | inconclusive: 10 µM [inhibitor, partial curve] | –
Nc1c(-c2cccc(Cl)c2)cnn1-c1cccc([N+](=O)[O-])c1 | inconclusive: 39.8 µM [inhibitor, partial curve] | –
COCc1cc(S(=O)c2ccc(Cl)cc2)nc(C)n1 (stereo not given) | – | inactive: -12.2%
Cc1ccc(C(=O)OCC(=O)NCc2ccc3c(c2)OCO3)s1 | inconclusive: 31.6 µM [inhibitor, partial curve, poor fit] | –
CCSC(=O)CCCCCCCCCCCO | inconclusive: 25.1 µM [inhibitor, partial curve] | –
COc1ccccc1N1CCN(CCNC(=O)Nc2cccc(C)c2C)CC1 | – | inactive: -3.46%
Cc1cccc(N2CCN(CCNC(=O)c3cc4c(s3)CS(=O)(=O)C4)CC2)c1C | inconclusive: 12.6 µM [inhibitor, partial curve] | –
OCC1CCCCN1C(=S)Nc1cccc(Cl)c1 (stereo not given) | inconclusive: 14.1 µM [inhibitor, partial curve] | –
CCN(CC)S(=O)(=O)c1ccc(C)c(NC(=O)CSc2nc3ccc(C)cc3[nH]2)c1 | inconclusive: 50.1 µM [inhibitor, single point] | –
O=C(Cn1nc(-c2ccccc2)ccc1=O)NCC1CCCO1 (stereo not given) | inconclusive: 28.2 µM [inhibitor, partial curve] | –
COC(=O)NCc1ccc(Cl)c(Cl)c1 | inconclusive: 35.5 µM [inhibitor, partial curve] | –
Cc1ccc(Nc2nc3ccccc3s2)cc1 | – | inactive: -22.5%
O=C(Nc1ccccc1)N1N=C(c2cccs2)CC1c1cccs1 (stereo not given) | – | inactive: 15%
CCNc1nc(Oc2c(Cl)cccc2Cl)cc(C(F)(F)F)n1 | inconclusive: 35.5 µM [inhibitor, partial curve] | –
O=C(Nc1ccccc1)c1ccccc1OCc1ccc(F)cc1 | inconclusive: 0.794 µM [inhibitor, full curve, poor fit] | –
O=C(N/N=C/c1ccc2c(c1)OCO2)c1ccc2c(c1)OCO2 | – | inactive: 0.356%
CC(C)C(=O)Nc1cccc(C(=O)N2CCCCC2C)c1 (stereo not given) | – | inactive: -10.9%

SMILES | Potency | activity change, negative = displacement
NC(=O)C1CCN(CC(O)COc2ccc(-c3ccccc3)cc2)CC1 (stereo not given) | inconclusive: 25.1 µM [inhibitor, partial curve] | –
CCCCNc1nc(C)nc2c1nc(-c1ccccc1)n2CCN1CCCCC1 | inconclusive: 31.6 µM [inhibitor, single point] | –
Cc1ccc(CNC(=O)c2cc3c(s2)CN(Cc2ccccc2)C3)cc1 | inconclusive: 12.6 µM [inhibitor, partial curve] | –
CCOc1ccc(C2C(=O)N(C3CCCCCC3)CC(=O)N2CCC2=CCCCC2)cc1OC (stereo not given) | – | inactive: 14.4%
CCOc1ccc(CNC(=O)Cn2nc(C)n3cccc3c2=O)cc1 | – | inactive: 2.15%
CCCCn1cc(S(=O)(=O)c2ccc(OCC)cc2)c(=O)c2cc(OC)c(OC)cc21 | inconclusive: 20 µM [inhibitor, partial curve] | –
N#Cc1cc([N+](=O)[O-])ccc1NCCc1ccccn1 | – | inactive: -18.7%
Clc1ccccc1Nc1ncnc2c1nnn2Cc1ccccc1 | inconclusive: 28.2 µM [inhibitor, partial curve] | –
N/C(Cc1ccc([N+](=O)[O-])cc1)=N\OC(=O)Cc1ccc(Cl)cc1 | inconclusive: 31.6 µM [inhibitor, partial curve] | –
COCCNC(=O)Cn1nc(-c2ccc(C)cc2)ccc1=O | inconclusive: 14.1 µM [inhibitor, partial curve] | –
COc1ccc(CN2CCc3nc(Nc4ccccc4)ncc3C2)c(OC)c1OC | inconclusive: 44.7 µM [inhibitor, partial curve, poor fit] | –
COc1ccc(C2=Nn3c(nnc3-c3ccc(OC)cc3OC)SC2)cc1 | inconclusive: 35.5 µM [inhibitor, partial curve] | –
O=C(COC(=O)Cc1ccccc1F)Nc1ccc(SC(F)F)cc1 | inconclusive: 25.1 µM [inhibitor, partial curve] | –
CCc1sc(C(C2C(=O)CC(C)(C)CC2=O)C2C(=O)CC(C)(C)CC2=O)cc1[N+](=O)[O-] | inconclusive: 39.8 µM [inhibitor, partial curve] | –
Cc1onc(-c2ccccc2)c1C(=O)Nc1ccon1 | inconclusive: 39.8 µM [inhibitor, single point] | –
O=S(=O)(Nc1ccc(Br)cc1)c1cccc2cccnc12 | – | inactive: -20.1%
CC(=O)N1C(=O)C2(C(C#N)=C(N)Oc3c2c(C)nn3-c2ccccc2)c2ccccc21 (stereo not given) | inconclusive: 31.6 µM [inhibitor, single point] | –
COc1cccc(C(=O)NCC(=O)N/N=C/c2cn[nH]c2-c2ccccc2)c1 | inconclusive: 28.2 µM [inhibitor, single point] | –
O=C(NCc1ccc(Cl)cc1)c1ccc(NC(=O)N2CC3CCCN3c3ccccc32)cc1 (stereo not given) | inconclusive: 10 µM [inhibitor, partial curve] | –
CSc1ccccc1NC(=O)CN(C)CC(=O)Nc1ccc(Cl)cc1[N+](=O)[O-] | inconclusive: 31.6 µM [inhibitor, partial curve] | –
O=C(c1cc(COc2ccc(F)cc2Cl)on1)N1CCCCCC1 | inconclusive: 39.8 µM [inhibitor, partial curve] | –
O=C(CN1C(=O)c2ccccc2S1(=O)=O)N1CCc2ccccc21 | inconclusive: 3.98 µM [inhibitor, full curve] | –
Cc1n[nH]c(=S)n1/N=C/c1ccc(Br)o1 | inconclusive: 31.6 µM [inhibitor, single point] | –
O=C(N/C(C(=O)N1CCOCC1)=C(\Sc1ncccn1)c1ccccc1)c1ccccc1 | – | inactive: -14.2%

SMILES | Potency | activity change, negative = displacement
Cc1cccc(NC(=S)N2N=CCC2c2ccccc2)c1 (stereo not given) | inconclusive: 31.6 µM [inhibitor, partial curve] | –
O=C(CN1C(=O)c2cccnc2Oc2ccc(Cl)cc21)Nc1ccccc1F | inconclusive: 20 µM [inhibitor, partial curve] | –
CCCCCCCOc1ccc(C2CC(=O)N(C)C2=O)cc1 (stereo not given) | inconclusive: 39.8 µM [inhibitor, single point] | –
COc1ccc(C(=O)Oc2ccc(=O)n(-c3ccccc3)n2)cc1 | inconclusive: 25.1 µM [inhibitor, partial curve] | –
CN1CCN(C(c2ccc(Cl)cc2Cl)c2sc3nc(-c4ccco4)nn3c2O)CC1 (stereo not given) | – | inactive: -4.77%
CCc1cc(C(=O)NC(C)c2ccccc2)no1 (stereo not given) | inconclusive: 22.4 µM [inhibitor, partial curve] | –
COc1nc(-c2ccc(C)cc2)ccc1-c1noc(-c2cccnc2)n1 | – | inactive: -12.2%
COc1cc(CNC2CCCC2)cc(Cl)c1OCc1ccccc1F | inconclusive: 20 µM [inhibitor, partial curve] | –
Cc1ccc2nc(N3CCN(c4ccccc4F)CC3)c(C=O)c(=O)n2c1 | – | inactive: -7.19%
O=C(NCc1ccc2c(c1)OCO2)c1nc(S(=O)(=O)Cc2ccccc2F)ncc1Cl | – | inactive: -2.11%
CCCCOc1ccccc1NC(=O)CC1Nc2ccccc2NC1=O (stereo not given) | inconclusive: 22.4 µM [inhibitor, partial curve] | –
Cc1ccc(NC(=O)C2CC(=O)N/C(=N/N=C/c3ccco3)S2)cc1 (stereo not given) | – | inactive: -1.18%
O=C(O)c1ccccc1C(=O)Nc1ccc(-n2nc(C(F)(F)F)cc2C(F)(F)F)cc1 | inconclusive: 39.8 µM [inhibitor, single point] | –
CCCCCCCCN=C1NC(=O)CS1 | inconclusive: 39.8 µM [inhibitor, partial curve] | –
CCOC(=O)c1c(C)[nH]c(O)c1C=Nc1ccc(Cl)cc1 | inconclusive: 28.2 µM [inhibitor, single point] | –
O=C(CSCc1ccccc1)NCc1ccc2c(c1)OCO2 | inconclusive: 28.2 µM [inhibitor, partial curve] | –
Cc1ccccc1NC(=O)OCc1ccccc1 | inconclusive: 20 µM [inhibitor, partial curve] | –
CN(C)c1nccc(NCc2ccccc2)c1C#N | inconclusive: 28.2 µM [inhibitor, partial curve] | –
CCCCN(C)CCNC(=O)c1ccc2c(c1)NC(=O)C(N1CCCCC1)S2 (stereo not given) | inconclusive: 31.6 µM [inhibitor, partial curve] | –
O=C(Nc1nnc(S(=O)(=O)N2CCCC2)s1)c1ccccc1Br | inactive | –
Cc1ccc(N2C(=O)C3C4C=CC(CC4)C3C2=O)cc1Br (stereo not given) | inconclusive: 2.24 µM [inhibitor, partial curve] | –
Oc1ccc(O)c(/C(=N/Nc2ccccc2)c2ccccc2)c1 | inconclusive: 35.5 µM [inhibitor, partial curve] | –

Source: PubChem BioAssay AID485281 (National Center for Advancing Translational Sciences (NCATS), 2010)
